Out of some 420,000 compounds screened, about 50,000 (12%) were called active. Inconclusive results, whose numbers are uncertain, are shown with a selection of clear calls. Calls follow the shape of the dose curve; as a rule, active = well fitted inhibition curve with a large enough effect; inconclusive = small, poorly fitted or top-dose-only effect; inactive = flat fitted curve, though single readings scatter. Potencies of inconclusive entries are left out as doubtful fits.
Assay: qHTS for Inhibitors of human tyrosyl-DNA phosphodiesterase 1 (TDP1): qHTS in cells in presence of CPT; also: nearly all actives have a fitted effect of over 55% in size
Settings: chicken DT40 Tdp1-/-;hTDP1 cells + 20 nM CPT, ATP luminescence, 48 h; activity change, negative = growth inhibition: at 46.2 µM (top of the series) unless noted
In short: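 Chicken DT40 Tdp1-/- cells complemented with human TDP1, 400 cells/well, exposed to compounds plus 20 nM camptothecin for at least 48 h at 37 C; viability read as ATP content by CellTiter-Glo luminescence.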
With `O=C(NCc1ccc(Cl)cc1)C(=O)c1c[nH]c2ccccc12` the Potency was inconclusive [inhibitor, partial curve, poor fit]. For `CC(C)c1ccc2[nH]c(O)c(N=NC(=O)c3cccc(S(=O)(=O)Nc4cccc(Cl)c4)c3)c2c1`, the Potency was inconclusive [inhibitor, single point]. For `CCOc1ccccc1NC(=O)CN1C(=O)C(C)SC(C)C1=O` (centres undefined), the “activity change, negative = growth inhibition” value was inactive: 0.269%. For `Cc1nn(-c2ccccc2)c2c1N(CCCC(=O)NCc1ccc(Cl)cc1)C(=O)CS2`, the Potency was active: 25.9 µM. With `COc1ccc(OC)c(CCNC(=O)CCn2ccc3cc(S(=O)(=O)N4CCCC4)ccc32)c1` the Potency was inconclusive [inhibitor, single point]. With `CN(C)C(=O)c1ccc(NC(=O)COC(=O)C2=COCCO2)cc1` the “activity change, negative = growth inhibition” value was inactive: -7.01%. For `CCN1c2ccccc2N(C)C1(C)c1ccccc1` (centres undefined), the Potency was active: 3.66 µM. In the case of `O=C1C2C3C=CC(C3)C2C(=O)N1c1ccc2c(c1)CCC2` (centres undefined), the “activity change, negative = growth inhibition” value is reported as inactive: 5.07%. With `COc1cc(CNC2CCCC2)cc(Cl)c1OCc1ccccc1Cl` the Potency was active: 23.1 µM. For `CN(C)S(=O)(=O)c1cccc(NC(=O)COC(=O)C2(c3ccccc3F)CCCC2)c1`, the Potency was active: 18.4 µM. For `CC(C)(C)NC(=O)C(c1ccc(F)cc1)N(Cc1ccco1)C(=O)CCC(=O)Nc1ccccn1` (centres undefined), the “activity change, negative = growth inhibition” value was inactive: 0.891%. For `N#CCc1ccc(C(=O)c2ccccc2)s1`, the “activity change, negative = growth inhibition” value was inactive: 2.33%. For `CCOc1ccc(NC(=O)Cc2ccc(NC(=O)N3CCCCc4ccccc43)cc2)cc1`, the Potency was active: 5.17 µM. In the case of `CN(C(=O)COC(=O)CNC(=O)c1ccc(C(C)(C)C)cc1)c1c(N)n(Cc2ccccc2)c(=O)[nH]c1=O`, the “activity change, negative = growth inhibition” value is reported as inactive: 2.21%. In the case of `Cc1nc2ccccc2c(=O)n1/N=C/c1ccc2ccccc2c1O`, the Potency is reported as inconclusive [inhibitor, single point]. For `c1ccc(Cn2nnc3c(NCC4CCCO4)nc(C4CC4)nc32)cc1` (centres undefined), the Potency was inconclusive [inhibitor, single point]. For `Cc1ccc(-c2cc(C(F)(F)F)nc(SCC(=O)c3cccc([N+](=O)[O-])c3)n2)cc1`, the Potency was inconclusive [inhibitor, single point]. With `Cc1ccc(CN(Cc2ccco2)C(=O)COc2ccc(Cl)cc2Cl)cc1` the Potency was inconclusive [inhibitor, single point]. In the case of `Cc1c(C(=O)NNc2cc(=O)n(C)c(=O)n2C)cccc1[N+](=O)[O-]`, the Potency is reported as inconclusive [inhibitor, single point]. With `CC1CN(Cc2cc(=O)[nH]c(C(C)C)n2)CC(C)O1` (centres undefined) the “activity change, negative = growth inhibition” value was inactive: 16.4%. For `CCOC(=O)C1(Cc2ccccc2)CCN(Cc2cccn2-c2cccnc2)CC1`, the Potency was inconclusive [inhibitor, single point]. With `CCOc1ccc(Nc2ncnc3c2cnn3C)cc1` the Potency was inconclusive [inhibitor, single point]. With `Cc1cc(C)n(CC(O)Cn2c3ccc(Cl)cc3c3cc(Cl)ccc32)c(=O)n1` (centres undefined) the Potency was inconclusive [inhibitor, single point]. With `CN1CCN(C(=O)/C=C/c2ccc3c(c2)OCO3)CC1` the “activity change, negative = growth inhibition” value was inactive: -6.93%. With `COc1cc(C)c(CN2CCC(Cc3ccccc3)CC2)cc1C` the Potency was inconclusive [inhibitor, single point]. With `C[C@H](CO)N1C[C@H](C)[C@@H](CN(C)S(=O)(=O)c2ccccc2)Oc2ccc(NS(=O)(=O)c3ccccc3)cc2C1=O` the Potency was inconclusive [inhibitor, full curve, poor fit]. With `CC(=O)C1=C(O)CCCC1=NCc1nc2ccccc2[nH]1` the “activity change, negative = growth inhibition” value was inactive: 1.71%. For `Cc1ccc(NS(=O)(=O)c2cc(C(=O)NCCSc3ccc(C)cc3)ccc2C)cc1`, the Potency was inconclusive [inhibitor, single point]. For `Cc1ccc(-c2nn(C)c(=O)c3ccccc23)cc1CO`, the “activity change, negative = growth inhibition” value was inactive: -29.7%. With `CCNC1CCC(Nc2ccnc3cc(Cl)ccc23)CC1` (centres undefined) the Potency was active: 18.4 µM. In the case of `CC1(C)NC(=O)N(CCCCSc2ccc(Cl)cc2)C1=O`, the Potency is reported as inconclusive [inhibitor, single point]. In the case of `Cc1ccc(-c2nc3ccc(Br)cn3c2CC(C)(C)C)cc1`, the Potency is reported as inconclusive [inhibitor, partial curve]. With `Cc1ccn2c(=O)nc(SCC(=O)c3ccc(Cl)cc3)nc2c1` the Potency was inconclusive [inhibitor, single point]. With `CN(C(=O)CSc1ncnc2sc3c(c12)CCC3)C1CCS(=O)(=O)C1` (centres undefined) the “activity change, negative = growth inhibition” value was inactive: -5.56%. For `COc1ccc(/C=N/NC(=O)c2ccncc2)cc1COc1ccc(NC(C)=O)cc1`, the Potency was active: 5.8 µM. In the case of `CCOC(=O)c1cc(-c2ccc(F)cc2)n(CC(=O)NCc2ccc(OC)cc2)c1C`, the Potency is reported as inconclusive [inhibitor, partial curve]. For `COc1ccccc1CCc1nnc(CCC(=O)N(C)Cc2cccc3ncccc23)o1`, the Potency was inconclusive [inhibitor, single point]. For `COC(=O)c1ccc([C@H]2Nc3ccc(S(=O)(=O)Nc4ccc(C)cc4)cc3[C@H]3C=CC[C@H]32)cc1`, the Potency was active: 13 µM. With `CC(C)OC(=O)c1ccc(NC(=O)Cn2c(-c3nonc3N)nc3ccccc32)cc1` the “activity change, negative = growth inhibition” value was inactive: -1.48%.
% is scaled to controls: 0 for no effect and ±100 for the full control effect; potency is read from the fitted curve at half-maximal effect; tags tell the direction and shape of the fitted curve.
